Consider 44 sequences from the supplement of paper PMC11417369.

± gives the standard deviation of the averaged measurements. The list shows a part of the results.

In the assay the test system is PfAP2-G AP2 domain (GST-tagged). The assay is described as follows: gcPBM binding intensity (ln(normalized median fluorescence intensity)); higher = stronger DNA binding. The gist of the method:
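Binding intensity values are the highest Masliner-normalised natural-log median intensity among replicate spots of either probe orientation. The binding step lasted 1 h in 1× PBS with 1% milk, 0.2 mg/ml BSA, 0.5% salmon testes DNA and 0.03% Triton X-100, using GST-tagged P. falciparum DNA-binding domains expressed in E. coli on an Agilent 4 × 180k array of primer-extended double-stranded 36-bp intergenic genomic probes plus negative controls. Alexa488 anti-GST antibody and a 488 nm scan detected bound protein.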
“AAATAAAAAAAAAAAAAAAATAACTTAAATGGGATA [TGCATGCA_negctrl_site595]”: the “gcPBM binding intensity (ln)” value was determined as 9.555 ± 0.064.

For “AACTAAATGTTATTCGCACACGGAATTTATTTAATG [CACACA_site3664]”, the “gcPBM binding intensity (ln)” value was 10.2 ± 0.18. Consider “TTTTTTTTTTCTTTTTTTCTCATGAAATTCTAAATG [CACACA_negctrl_site918]”, for which the “gcPBM binding intensity (ln)” value stood at 10.2 ± 0.42. For the sequence “ATATATATATATATATATATATATATGATTATTACT [GTGCAC_negctrl_site109]”, the “gcPBM binding intensity (ln)” value came out at 9.78 ± 0.47. Take “TATTACATTATTCAAAAAAATTTATATGGTTATAGG [CACACA_negctrl_site1657]”: the “gcPBM binding intensity (ln)” value came out at 9.72. For the sequence “TGATAATAAGCATACACACACACACCCAAAAAAAAA [CACACA_site721]”, the “gcPBM binding intensity (ln)” value stood at 10.4 ± 0.39. For “AATTATATTCAAAATGGTACACACAATATTTAATTG [XGTACX_site5521]” the value was 11.2 ± 0.69; for “TAGTAAAAGATATACACACACCAAAAAATATAATTA [CACACA_site7142]”, 9.98 ± 0.042; for “TATATATGGGTACTAATTCCTTTAATTTCTTTAATT [CACACA_negctrl_site949]”, 11 ± 0.53. “TTTTGTATTTCTCACACACACATAAGTAAACAATAA [CACACA_site5105]”: the “gcPBM binding intensity (ln)” value turned out to be 10.3 ± 0.3. For the sequence “AAAAAAAAATTAGGGGTGCCATTTGCTGCTGTGCTT [GTGCAC_site9913]”, the “gcPBM binding intensity (ln)” value was 9.97 ± 0.042. For “TTCCCTTATTTTGTATGTACACAATTTATCATGTTG [XGTACX_site2896]”, the “gcPBM binding intensity (ln)” value was 11.5 ± 0.85. For “ATATATATATATGCATGTACATATATTTGTTATATC [XGTACX_site3197]”, the “gcPBM binding intensity (ln)” value amounted to 11 ± 0.57.

Take “TCACACCTTTTTGGTTGTACTTAAATTTCTTTTTTT [XGTACX_site6438]”: the “gcPBM binding intensity (ln)” value turned out to be 11.2 ± 0.75. As for “AATAGATATATAAATACACACAAACATACCTATATA [CACACA_site7823]”, the “gcPBM binding intensity (ln)” value was 10.05 ± 0.014.

Regarding AAACAAAGGGAACATGTGCACTTACAAAAAAAAAGA, the “gcPBM binding intensity (ln)” value was found to be 10.5 ± 0.49. Regarding “TGTAATATGAAATGTGTACACACGCACCCACAAAAA [CACACA_site8948]”, the “gcPBM binding intensity (ln)” value came to 11.6 ± 1. “TTCTCAAAGTTTACGTGTACATAAATTATATAAATG [XGTACX_site2622]”: the “gcPBM binding intensity (ln)” value turned out to be 11.5 ± 0.91. On to “ATTAGGCATATTTTCTGTACACAATAATAAAAAAAA [XGTACX_site3957]”, for which the “gcPBM binding intensity (ln)” value is 11.6 ± 0.91.

Regarding “ATTTATTTTAATTTTTTTTTTTCTCTTTTGGATCTA [CACACA_negctrl_site1408]”, the “gcPBM binding intensity (ln)” value came out at 9.46 ± 0.099. “ATTAAATACATTAACACACACACAAATAAATACATA [CACACA_site5583]”: the “gcPBM binding intensity (ln)” value is 10.2 ± 0.25.

As to “TTTTATTATTTGTCTTGTACTCATTGTAAGAGTATG [XGTACX_site1538]”, the “gcPBM binding intensity (ln)” value is 11.4 ± 0.91. For “TTTCAAAAATTATTTTGTACATATAATTAATATACG [XGTACX_site512]” the value was 10.9 ± 0.58.

In the case of “GACAGATTATAGCATAGTACTCATACATACATACAT [XGTACX_site1252]”, the “gcPBM binding intensity (ln)” value amounted to 11.1 ± 0.71. The same measure for “TACATACATACATACACACACACATCTATATTTATA [CACACA_site6171]”: 10.7 ± 0.43. “GTGTAATATTATATATATATATATAATATATATACA [CACACA_negctrl_site263]”: the “gcPBM binding intensity (ln)” value came out at 9.74 ± 0.099. Consider “CACATATACAAAAAGAAATGTTTAGTTGAAAATTAA [CACACA_negctrl_site1407]”, for which the “gcPBM binding intensity (ln)” value turned out to be 9.79 ± 0.23.

Regarding “AATTTCTTCCATTGTAGTACTCAATTTTTTTTTGTT [XGTACX_site5847]”, the “gcPBM binding intensity (ln)” value stood at 11.4 ± 0.83. With “ATTTAAAAGTTGGTAGTGCATTAAAAATAACAAAAA [GTGCAC_site9835]”, the “gcPBM binding intensity (ln)” value came out at 10.6 ± 0.41. Turning to “AAAAAAAAAAAAATGGTGCAACTTTGTTAAAGGAAA [GTGCAC_site9950]”, the “gcPBM binding intensity (ln)” value was 10.2 ± 0.15.

For the sequence “GTAATAAATTAAATATGTACATATTAAAATTAAGGA [XGTACX_site2290]”, the “gcPBM binding intensity (ln)” value worked out at 11.3 ± 0.67. For the sequence “ATTGATACATCCAATACACACTACAGATAATGATGT [CACACA_site5098]”, the “gcPBM binding intensity (ln)” value was 10.2 ± 0.15. Turning to “GTATGATTAAATAAAGGTACACTTATATTTATTTAT [XGTACX_site6966]”, the “gcPBM binding intensity (ln)” value was found to be 11.3 ± 0.88. Turning to “TATCACATTTATGAGAGTACATAATTAATTCATGAT [XGTACX_site7850]”, the “gcPBM binding intensity (ln)” value was 11.2 ± 0.83.

In the case of “TGCTACATAATATGTACACACATATACATATTTATA [CACACA_site6545]”, the “gcPBM binding intensity (ln)” value is 11.3 ± 0.92. The same measure for “GAATTAATTTTAAAACGTACATGGGTGTATTTACAC [XGTACX_site5939]”: 11.3 ± 0.79.

Take “CATAATACAAATGTGATACCTGAAAATGACTTATTA [CACACA_negctrl_site994]”: the “gcPBM binding intensity (ln)” value was 10.055 ± 0.007.

On to “TTCTTTTTTGTAATAACACACACACTAACAGAAAAA [CACACA_site8646]”, for which the “gcPBM binding intensity (ln)” value turned out to be 10.5 ± 0.42. The same measure for “ATATATATATATAATTGTACATGTGTGTATAATTTG [XGTACX_site2417]”: 10.9 ± 0.55. For the sequence “AATTATACATATATTTAACACACATTTTATAAAGTG [CACACA_site8362]”, the “gcPBM binding intensity (ln)” value was found to be 10.29 ± 0.021.

With “GTCAATATTTAGATATGTACTAAGGAGTGCTATATA [XGTACX_site222]”, the “gcPBM binding intensity (ln)” value came out at 11 ± 0.44.

As to “ATATTATGAAGGGATATTTTCAAAAATATTAGGAGA [CACACA_negctrl_site942]”, the “gcPBM binding intensity (ln)” value is 9.905 ± 0.021.

Regarding “TAAATGAAAATAAATTAACACACAATTTTAATATTG [CACACA_site8360]”, the “gcPBM binding intensity (ln)” value is 9.7 ± 0.16.

In the case of “TTTTATTTTATATAACAACAAAATGGAAATATATAT [GTGCAC_negctrl_site71]”, the “gcPBM binding intensity (ln)” value came to 10.2 ± 0.37.
